Source: the RNAGym collection of RNA variant scans (doi:10.7554/elife.90254)
Read counts are not given, so values of variants with three or more changes are uncertain.

B1: LINE1-mini (parent)
chain: GGCAGAGCUCAACACAGCGUGGCAAAGUGGCUGUGGCUAGACUGCC

Variants of: B1
Assay: self-cleavage, relative activity (ratio to wild type); higher = more cleavage; in vitro, sequencing; the parent is a self-cleaving ribozyme

Row | Variant | self-cleavage
1 | GGCAGAGCUCCACACAGCGUUGCAAAGUCGCAGUGACUAGACUGCC | 0.03
2 | AGUAGAGCUCAACACAGCGUUGCAAAGUGGCUGUGGCUACACUGUC | 0.1
3 | GGCAGAGCUCAACAAAGCCGGGCAAAGUGCCUUUGGCUAGACUGCC | 0.03
4 | GUCAGAGCUCAAUACAGCGUGGCAAAGUGCCUGUGGCUAGACUGCC | 0.02
5 | GGCAGAGCUCAACACAGCGUGACAAUGUGGCUAUGGCUAGACUGCC | 0.28
6 | CGCAGAGCUGAAUACAGCGUGGCAAAGUGGCUGUUGCUAGACUUCC | 0
7 | GGCAGAGCUCAACAUAGCGUGGUAAAGUGGCUGUGGCUAUACUAGC | 0.04
8 | GACAGAGCUCAACAUAGCGAGGCAAAGUGGCUGUGGCUAGACUGCC | 0.37
9 | GGCACAGCGCAACACAGCGUGGUAUAGUGGUUGUGGCUAGACCGCC | 0.03
10 | GGCAGAGCUCAACACGGCGUGGCAAAGUGGCCGUGGUUAGACUGCC | 0
11 | GGCAGAGAUCAACACAGCGUGGGAAAGGGGCUGUGGCUAGACUGAC | 0.09
12 | GGCAGAUCUCAACACAGCGCGGAAAAGUGGCUGUGGCUAGACUGCC | 0
13 | GGCAAAUCUCAAUACAGCGUGGCAAAGUGGCUGUGGCUAGACUGCC | 1.85
14 | GGCAGAGCUCAACAUACCGUGGCAAAGUGGCAGUGGCUAGACUGCC | 0.12
15 | GGCAGAGCUCCACACAGCGAGGCAAAGUGGCUGUGGCUAGACUUCC | 0.01
16 | GCCAGAGCUCAACACAGAGUGGUAAAAUGGCUGUGGCUAGACUGCC | 0.01
17 | GGCAGAGGUCAACACAGCGUGGUAAAGUGGCUGUGGCUAGACCGGC | 0.02
18 | CGCAGUGCUCAACACAGCGUGGCAAAGUGACUGUGGCUAGACUGCU | 0.06
19 | GGCCGAGUUCAACACAGCGUGGAAAAGUGGUUGUGGCUAGACUGCC | 0.02
20 | CGCAGAACUCAACACAGCGUGAGAAAGUGGCUGUGGCUAGACUGCA | 0.03
21 | GGCUGAGCUCAACAUACCGUGGCGAAGUGGUUGUGGCUAAACUGCC | 0.02
22 | GGCCGAGCUCAACACAGAGUGGCAGAAUGGCUGUGGCUAGACCGUC | 0.01
23 | GGCAGGGCAUAACACAGCGUGGCAAAGUGGCUGUGGAUAGAUUGCC | 0.05

Row | Variant | self-cleavage
24 | GGCCGAGCUCAAAACAGAGUGGCAAAGUGGCUGUGGCUAGACUUCC | 0
25 | GGCAGAGCUCAACACAGCGUGGUAAAGUGGCUGUAGCUAGACUGCU | 1.19
26 | UUCAGAGCUCAGCACAGCGUGGCCAAGUGGCUGUGGCUAGACUGCC | 0.03
27 | GGCAGAGGCCAACACAGCGUGGUAAAGUGGCUGUGGCUAGACUGCC | 0.04
28 | GGCAGAUCUCAACGCAGCGUGGCAAGCUGGCUGUGGCUAGGCUGCC | 0.06
29 | GGCAGAGCUCUACGCAUCGUGGCAAAGUGGCUGUGGCUAGUCCGCC | 0.02
30 | GGCAAAGCUCAACACAGCGUGGCAUAGUGCCUGUGGCUAGACUGAC | 0.02
31 | GGCGGAGUUCAGCACAGUGUGGCAAAGUGGCUGUGGCUAGACUGCC | 0.14
32 | GGCAGAGCUCAACACAGCGGGGCAAAGUUGCUGUGGCUAGACUCCC | 0.09
33 | GGCAGAGCUCAACAUAGCCUAGCAAAGUGGCUGUGGCUAAACUGCC | 0.04
34 | GGCAGGGCUCAACUCAGCGUGGCAAAGUGGCUGAGGCUAGACUGCC | 0.04
35 | GGUAGAGCUCAACACUACGUGGCAAAGUGGCAGUGGCUAGACUGGC | 0.17
36 | GGCACAGCUCAGCACAGCGUGGAAAGGUCUCUGUGGCUAGACUGCC | 0.07
37 | GGCAGUGCUCGACACAGCGUGGCAAACUCGCUGUGGCUAGACUGCC | 0.01
38 | GGCAGAGCUCAACACAGCGCGGCAAAGUGGCAGUGGCUAGACUGCU | 0.4
39 | GGCAGAGCUCGACACAGCGUGGCAAAGUGGCUGUGGCUAGUCAGCC | 0.01
40 | GGCAGGGCUCAACACAGCGUGGCAAACUGACUGUGGCUAGACAGAC | 0.13
41 | GACCGAGCUCCACACUGCGUGGCAAAGUAGCUGUGGCUAGACUGCC | 0.01
42 | GGCAGAGCUCAACACGGAGUGGCAAAGUGACUGUGGCUCGACUGCC | 0.06
43 | GGCAUAGCUCAAUACAGCGUGUCAAAGUGGCUGUGGCUGCACUGCC | 0.04
44 | GGCAGAGGUCAACACAGCGUGGCACAGUGGCUGUGGCUAGACUGAC | 0.03
45 | GUCAGAGCUCAACGCAGCUUGGCAAAGUGGCUGUGGCUAGACUGCC | 0.09
46 | GGCAGAGCUCAAUACAGCGUGGCAAAGUGGCUGUGGCUAGACUACG | 0.11

Row | Variant | self-cleavage
47 | GGCAGAGCUCAACACAGCGUGCAAAAGUGUAUGUGGCUAGACUGCA | 0.13
48 | GGCAGAGCUUAACCCAGCGUGUCAAAGUGGCUGUGGAUAGACUGCC | 0.06
49 | GGCAGAGCUGAACACAGCGUGGCAAGGUGCCUGUGGCUAGACUGCC | 0.16
50 | GGCAGAGCUCAACACAGCGACGCAAAGUGGCUGUGGCUAGAAUGCC | 0.06
51 | GGCUGAGUUCAACAAAGAGUGGCAAAGUGGCUGUGGCUAGACUGCC | 0.28
52 | GGCAGAGCUCAACACAGCGUGGCAAAGAGGGUGUAGCCAGACUGCC | 0.06
53 | GGCAGAGCUCAACACAGAGUGACAAAGUGGCAGUGGCUAGACUGCC | 0.03
54 | GGCAGGGCUCAACACACCGUGGCUAAGUGGCUGUGGUUAGUUUGCC | 0
55 | GGCAGAGCUCCACACAGCGUGGCAAAUUGGCAGUGGCUAAACUGCC | 0.02
56 | GGCAGAGCGCAACACAGCAUGGCAAAGAGGCAGUGGCUAGACUGCC | 0.06
57 | GGCAGAGCUCAAAGCUGCGUGGCAAAGUGGCUGUGGCUAGAUUGCC | 0.03
58 | GCCAUAGUUGAACGCAGCGUGGCAAAGUGGCUGUGGCUAGACUGCC | 0.01
59 | GGCCGAGCUCAACACAGCGUGGCAAAGUGCCUAUGGCUAGACUGCC | 0.02
60 | GGCAGAGCUCAACACAGCGUGGCAAAGUGGAUGUGGCUCGACUGCU | 0.04
61 | GGCAGAGCUCAACACAGCGUGGCAAAGAGGCUGUUGCUAGACUGCU | 0.1
62 | GGCAGAGCUCAAUACAGCGUUGCAAAGUGGCUGUGGCUAGACUGGC | 0.07
63 | GGCAGACCUCAACUCGGCGUGGCAAAGUGGCUGUGGCUAGACUGCC | 0.11
64 | GGCAGAGCUCAAGACAGCGUUGAAAAGUGGCUGUGGCUAGACUGCC | 0.14
65 | AGCAGAGCUCAACACAGCGUGGCAAGGAUGCUGUGUCUAUACUGCC | 0.07
66 | GGCAGAGCUCUACACAGCGUGCCAAAGUGGCUGUGGCAAGACUGCC | 0.03
67 | GGCAGAGCUCAGAACAGCGUGGGAAAGUGGGUGUGGCUAGAAUGGC | 0.06
68 | GGCAGAGCACAACACGGCGUGACAAAGUGGCUGUAGCUAGACUGCC | 0.26
69 | GGCGGAGCUCAACACAGCGUGGCAAAGUUCCUGUGGCUAGACUGCU | 0.05

Row | Variant | self-cleavage
70 | GGCAGAGCGCAACACAGCGUGGCAAAGUGGCUGUGGGUAGCCAGCC | 0.06
71 | UGCAGAGCUCAACACAGCGUGGCAAAGUGGCUGUGGAUAGACUGUC | 0.1
72 | GGCAGAGGUCAACACAGCGUGGCAAAGUGGCUGUGGCUAGACGACC | 0.04
73 | GGCAGAGCUCAACACAGGGUGGCAAAGUGGCUGUGCCUAGACUGCA | 0.12
74 | GGCAGAGCUCUACACAGCACGGCAAAGUGGCUGUGGCUAGACUGCC | 0.03
75 | GGCAGAGCUCAACUCAGCGUGGCAAAGUCGCUGUGGCUAGUCUGCC | 0.11
76 | GGGAGAGCUCGACACAGCGGGGCAAAGUGGCUGUGGCUAGACUUCC | 0.07
77 | GGCAGAGCUAAACACAGCGUGGCAAAGUGACUGUGGCUAGUCUGCC | 0.02
78 | GGCAGAGCUCAACGCAGCCUGGCAAAGUGGCUGUGGCCAGACUGCC | 0.06
79 | GGUAGAGCUCAACACAGCGAGGCAAAGUGGCUGUGGCUAGCCUGCG | 0.05
80 | CGCAGAGCUCAACACAGCUUGGCAAAGUGGCUAUGGCUAGACUGCC | 0
81 | GGCGGAGCUCAACACAUCGUGGCAAAGCGGCUGUGGCUAGACUGCC | 0.2
82 | GGCAGCGCUCAACACAGUGUGGCAAAGUGGCUGUGGGUAGACUGCC | 0.01
83 | GUCAGAGGUCAACACAGCGUGGCAAAGUGGCUGUGGCCAGACUGCC | 0.09
84 | GGCAGAGCUCACCACAGCGUGGCAAAGGGGCUCUGGCUAGACUGCC | 0.01
85 | GGCAGAGCACUAAACAGCGUGGGAAAGUGGCUGUGAUUAGACUGUC | 0.02
86 | GGCAGAGUUAAACACAGCGUGGCAAAGUGGCUGUGGCAAGACUGCC | 0.02
87 | GACCGAGCUCAACACAGCGUGGCAAAGUGGCUGUGGCUAGUCUGCC | 0.21
88 | GGCAGAGGUCAACACAGCGUGGCAUAGUGGCUGUGGCUCGACUGCC | 0.11
89 | GGCAGAGGUCAACACAGCGUGGCACAGUGGUUGUGGCUACACGUCC | 0.03
90 | GGCAGAGCACAACACAGGGUGGCAAAGUGGCUGUGGCUAGACUUCA | 0.02
91 | GGUAGAGCUCAACACAGCGUGGCAAGGUGGCUGUCGCUAGACUGCC | 0.04
92 | GCCAGAGCUCAACACAGCGUGACAAAGUGGCUGUGGCUAGAGUGCG | 0.01

Row | Variant | self-cleavage
93 | GGCAUUGUUCAACACAGCGUGGCAAAGUGGCUGUGGCUUGACUGCC | 0.01
94 | GGCAGAGCUCAACACACUGUGGCAAAGUGGCUGUGGCUAGACUGUC | 0.03
95 | GGCUGAGCUCGACACAGCGUGGAAAAUUGGCUGUCGCUAGACUGCC | 0.03
96 | GGCCGAGCUCAUCACAGCGUGGUAAAGUGGCUGUGGCUAGACUGCC | 0.52
97 | GGCAGACCUCAAGACAGCGUGGAAAAAUGGCUGUGGCUAGACUGCC | 0.01
98 | GGCAGAGCUCAACAUAGCGUGACAUAGUGGCUCUCGCUAGACUGCC | 0.01
99 | GGCAGAGAUCAACGCAGCUUGGCAAAGUGGCUGUGGCUAGAUUGCC | 0.12
100 | AGCAGAGCUCAACACAGCGUGCCUAAGUGGCUGCGGCUAGAGUGCC | 0
101 | GUCAAAGCUCAACACAGCGUGGCAAAGUGGCUGGGGCUAGACUGCC | 0.02
102 | UGCAGAGCUCAGCACAGCGUGGCAAAGUGGCUGUGGCUAGGCUGCC | 0.02
103 | GGCGGAGAUCAACACAUCGUGGCAAAGUGGCUGUGGCUAUACUCCC | 0.06
104 | UGCAGAGCUCAACACAGCGUGGCUAAGUGGCUGUGGCUAGACGGCC | 0
105 | GGCAGAGCUCAACACAGCGCAGCAAAGUGGCUGUUGCUAGACUGCC | 0.09
106 | GGCAGAGCUCAACUCAGCGUGGCAAGGUGGCUGUGGCUAGACUGGC | 0.07
107 | GGCAGAGGACAACACAGCAUGGCAGCGUGGCUGUGGCGAGAUUUCC | 0.18
108 | GGCAGAGCCCAACACAGCGUGGCAAAGUGGCUGGGGCGAGACUUCC | 0
109 | GGCAGAGCUCAACACAACGGUGCAAAGUGGCUGUGGCUAGACUCCC | 0.01
110 | GGCUGGUCUCAACACAGAGUGGCAAAGUGGCUGUGGCUAGACUGCC | 0.02
111 | GGCAGAGCUAAACACAGUGGGGCAAAGUGGCUGUGGCUAGACUGCC | 0.24
112 | GGGAGAGCUCAACACAGUGUGGCAAAGUGGCUGUGGCUAUGCUGCC | 0.03
